From the RNAGym collection of RNA variant scans (doi:10.1073/pnas.2313332121)
Variants at the background level are over-represented here.

B1: TPR 5TU (parent)
chain: GGAUCUUCUCGAUCUAACAAAAAAGACAAAUCUGCCACAAAGCUUGAGAGCAUCUUCGGAUGCAGAGGCGGCAGCCUUCGGUGGCGCGAUAGCGCCAACGUUCUCAACUAUGACACGCAAAACGCGUGCUCCGUUGAAUGGAGUUUAUCAUG

Variants of: B1
Test: polymerase ribozyme fitness, log enrichment relative to wild type (log ratio); higher = more active; in vitro selection for triplet polymerase activity
Method in brief: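 Each subunit of a heterodimeric triplet polymerase ribozyme was represented by a PCR-built, transcribed mutant library that underwent triplicate single-round in vitro selection with frozen incubation at −7 °C. Extended constructs were recovered by gel excision, streptavidin-bead capture and RT-PCR, and Illumina sequencing of input and output libraries kept genotypes with ≥10 input reads and ≥1 read per output. Fitness is the logarithm of genotype enrichment relative to wild-type enrichment, from inverse-variance-weighted replicate averages, with a logarithm base of 2.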

Polymerase ribozyme fitness (log ratio), ≤ -4.2:
A12U C27U G59A C79U
A12G C51G U61G C99A A113G C125U
C14U G42C A60G G68A A91G C116U
U13A C87A
C14G C69G A91G A137G
C14A C18U G46A G67A A73G C96G G124C
C14U A41G A49C U55G G88C A119G G126A
A12G A21U U53G C87G G140C U146A
A12G C57G C76U U77G G86A C93U A115U
C14G A29G G80C C87U
C14G A52U G88C A110G
A12G U13A C14U U15C A41G G65U A73U C87A C116G C132G
C14U A41C G88A G92A U109A C131A U135C G136A
U13G A47C C96U C131A
A12U G46A A49G C93U U135A U145G
A12U G42U C51A G88A C131A
A12G U45A A120U G124A G141U U148G
U13G C27U G86A
U13C U31G C32G G34A A39U G68U C118U
A12G U33A A47C A73C U77G G94U C108G
C14U A19C A49C A52G U53A U77G G86C A110G G124A
C14G C87U A91U C99U
C14U A26U U56C C85U C108A
C14U G42A A47C U77G G92U
A12U G83A A89U G92C C118G U139A
C14A A17U G92U A107G
A12U C27G G84C G143C
A12U A19U A30C C32A C57A A91G U109A U144G
C14G A24G U53A C85A U90A
C14G U61A G86A
A12U A17U C35G G81C C87U G124C
C14G C87U A91G U102C G141C
U13G A107C U145A
A12G C14A C51A C93G C118U C129A A137U
U13G G25C A40U A73G A91C A97U U151G G152A
U15A A19C G68U C93A U130G
A12U A24U A26G G65A G92U G143A
A12U A22G A52G G94U U127G C149A
C14G G25C G50C G83U C103A G117U C118G U135C
A12U A37G G46A G92A A113U G141U
C14G A30U A52C C87U C96G
C14G A28C
C14U A19U A24U C32U G68U C72G G84A C132G U146A
U13G C43U U56G C76G C87G U90A C123G
U13C C43U C76G U104C A122G
C14G A52G U55A C85A G133U
U13G G70A A137G
C14U A29U G84U A91C
C14U A24C C79A C85U G143C
C14G A49C
A12G C51U A66U C93U A98U G124A
A12G C43G U53A C75A G92C A98G A120U C131U G133A
A12G G48U U56A C75U G84U A97G G133U
C14G A49U A52G G58C
C14G A52C A60G G67A C85U C93U G133A
C14G U45A C76U C85G C103A U139A G143U
U13G G67C C93A
A12G G62C G74C G141U C149G
A12U C35G G46A C57G A60C C95U A119U
C14G A39G C57G C93G A121U
C14G U45G U53G G74A G92A
C14G A19C A23C A49C A91U A137G G141A U146C
C14U C51U A52C U53A C93U A97G C114U G117U A121G A137U
U13A A28U C43U U90C G92U C93U G141U
C14G A17C C43G C85U A91U U151G
U13C A26U C72A U101A C129U
A12G A30U C43A U90G G124C U144A
C14G C32A C85A C93U C125G
C14U A37U G42C C57G A66G C85G C95A C108A G141A
C14G G59A G136U
A12U C54A G71U A91G
C14G A19U G50C U56A G92U
C14U G80C A91C A113C
C14A C69U C85U G100C G117C
C14G C35A A91U A138U
A12U U13A C93A G94C C105U U134G
A12G A28C G34A G67C C95G C125G G128U
A12U A39C U55G C57G C75U G81A A115U C132G G136U U146G
A12G G46C C69G G88U
U15A A21U U44A C79G C87A
C14U U61A A73G C108G U109G
U13C A39C U53A A60G C93A A98C A107G
U13G A47G A60C A73G G86C G140U U148A
A12U A49C C51U C85A G140A
C14G A16U A17C G117U G141C
U13G A29G C87U G94C U127A U130C A150G
U13C U15G A23C U55A G126A
C14U C54U G58C C79G C87U A147U
C14U A40U U61A G84A A89G
A12G C38G A91U A106G G136A A147C
U13C A19C G50A U56A C87A
U13A G42C G100A C118U
A12U A41C G42C C54U G59C G62C G124C U148C
C14U A20U G81A G88C
A12G A23C G34A A47U G86C
C14G A29G U90G A98U U109C
A12G A40G U82C C87G C93U
A12U G74U G86U
A12U C35U C36G C85U C93A C95G C123U
U13A G58A C63U A64U U82G C85G C116U
C14A G67C A73G C87A A97C G143A
C14G A28U C54U G84A U144G
U13G A26U G46A U55A C57U G58A C96U G136U
C14G C18U A21U A24U G50C C72U C118G A122U
C14U A26U A39C C57A C63A C116U U144C
U15A A29G G42C A60U A113U U145C
U13C G48C G50U G100U A120U U134C
C14U A17U C18U A20C A22C C27U C51G G70A C85G U102G C108A
A12U C87A G141C
A12U C35U A41C U78G G94U A115C
U13G U33C C36A C93A U145C
U13A A41G C87A
C14G C27U G74A C85U
U13A C51U U82A A91U G100A G143A
U13A U55A C57U G70A A91G A97G G128U G152A
C14U G25C C32U G59C U77G
U13C A20U A41U A91G C96A C129G U148A
A12U A28C C93A C103A A147C U148G A150C
U13A C85G A106U A122C G136C
A12U A30U A91G
C14U A39U A47C A91U C95U C103A U104G A115U
U15A A40G U77G C116A U139A
A12U C14U A23G U56A C87U A142G U144A
C14G A24C A60G A66C
U13G A52G G71U G84C U148C
C14A A49U C76A C79A C96U C103A C116G G117A A121G A122U U139C C149G
C14U C85U U102G
A12U A39C U53C C72A A91U C125U G140U
A12G U13C U61A C75U A122U U151G
C14U A20U A29U A47C U56A U61G U82G
C14U U15C A21C C96A C114A U148A
A12U A22U U90G C114G
U13A C27A A52G G136U
A12U U33C G34U C38U G42A C85U U90G C93A A106U C132U
U13C C36A C95G G141A U146C
A12G U55A G80A A150C
C14U A17U A24G U53A G74U G80C A89U A91G G94U U109A A137U
U13C G65C U82A G117U
C14G C85G
A12U U55G C99A C131A
C14G A30C G50A G136U
A12U C85G U134A G143C
C14U U44A C79A U90C C96U A142U
C14G C35A G84A C87U
C14G A40G A41G U77G C79U G84U U102G U148G
C14U C35U G42A G48A C69U C75U C76U C85U A110U U134G G141C A150C
C14G A37G C43G C75G G86A C105A U146C
U13G A28C A47G C57U G70C C96U
U13G A21U C32A C38A U90C A97G A110G
C14A C72A G140U
A12U A52G U56G A73G G84A A107U A113C
U15A A17C C18A A28C C87A G92U C95U U109A U148G U151G
C14G A39C C75G C85A G133A
U13A A37G C99G C108A
C14G A29U C76G U148A
C14U A20C U55A C72A U90A A106G U144C
C14G A41U G62A U78A C99G
C14U U53A C54A C57U C103A A115U U135C G136A
U15A A22U A39C A64G C72U C96U A97C C125U A137U
C14G G25U U55G C93G C105U
C14A A28U U33A C38G C103G C105U
C14A A26U A40U C63G G140U
A12U G25A C87U C103G G124C
U13G A37U U56A C93A A113G U145G
A12U A16G A91U C95U G128U
U13C A47C C96A C149G
C14G C35G C96G G133U G143A
